According to the antibiotic and cytotoxicity screens of Wong et al. (2023):
Some of the results follow.

Experiments:
HSkMC = human skeletal muscle cells; test: cytotoxicity call (relative viability < 0.9); conditions: 10 µM
HepG2 = test: cytotoxicity call (relative viability < 0.9); conditions: 10 µM
S. aureus RN4220 = test: growth inhibition call (relative growth <= 0.2); conditions: 50 µM

Structure (SMILES)	cytotoxicity call (HSkMC)	cytotoxicity call (HepG2)	growth inhibition call (S. aureus RN4220)
O=C1N[C@H](Cc2c[nH]c3ccccc23)COC(=O)[C@@H](Cc2ccc(F)cc2)CC=CC[C@H]1CC(=O)N(CCO)Cc1ccccc1	inactive	inactive	inactive
O=C(O)C1=CO[C@@H](O[C@@H]2O[C@H](CO)[C@@H](O)[C@H](O)[C@H]2O)[C@@H]2C(CO)=CC[C@H]12	inactive	inactive	inactive
NCCC[C@@H](N)CC(=O)NC[C@H]1NC(=O)[C@@H](CO)NC(=O)[C@@H](N)CNC(=O)[C@H]([C@H]2CCN=C(N)N2)NC(=O)C(C=NC(N)=O)NC1=O (stereo not given in full)	inactive	inactive	inactive
CC(C)NC(=O)Nc1ccc2c(c1)C(=O)N([C@@H](C)CO)C[C@H](C)[C@H](CN(C)C(=O)C1CCCCC1)OCCCC[C@H](C)O2	inactive	inactive	inactive
C=CC[C@@H](CC(=O)NCCO)C(=O)N[C@H](COC(=O)[C@H](CC=C)CC(=O)OC(C)(C)C)Cc1ccccc1	inactive	inactive	inactive
Cc1noc(C)c1NC(=O)Nc1cccc2c1O[C@@H](CN(C)Cc1ccc(-c3ccccc3)cc1)[C@@H](C)CN([C@@H](C)CO)C2=O	inactive	inactive	inactive
C[C@@H]1CN([C@@H](C)CO)C(=O)c2cc(NC(=O)Cc3ccccc3)ccc2O[C@H]1CN(C)Cc1ccc(-c2ccccc2)cc1	inactive	active	inactive
COc1cccc(OC)c1C(=O)O[C@H]1[C@@H]2OC(=O)[C@@H](Cc3ccc4ccccc4c3)C/C=C/C[C@H](Cc3ccc4ccccc4c3)C(=O)O[C@H]2[C@@H](OC)O[C@@H]1CO	inactive	inactive	inactive
Cc1noc(C)c1S(=O)(=O)Nc1ccc2c(c1)C(=O)N([C@@H](C)CO)C[C@@H](C)[C@H](CN(C)C(=O)NC(C)C)O2	inactive	inactive	inactive
Cc1noc(C)c1NC(=O)N(C)C[C@@H]1Oc2ccc(NS(=O)(=O)c3c(C)noc3C)cc2C(=O)N([C@H](C)CO)C[C@@H]1C	inactive	inactive	inactive
C[C@@H]1CN([C@H](C)CO)C(=O)c2cccc(NC(=O)C3CC3)c2O[C@H]1CN(C)S(=O)(=O)c1ccc(F)cc1	inactive	inactive	inactive
C[C@H]1CN([C@@H](C)CO)C(=O)c2cccc(NC(=O)c3cnccn3)c2O[C@@H]1CN(C)C(=O)Nc1ccc(F)cc1	inactive	inactive	inactive
COCC#Cc1ccc2c(c1)O[C@@H](CN(C)S(=O)(=O)c1ccc(C)cc1)[C@H](C)CN([C@@H](C)CO)S2(=O)=O	inactive	inactive	inactive
C[C@@H]1CN([C@@H](C)CO)C(=O)Cc2cc(NC(=O)CCN3CCOCC3)ccc2O[C@@H]1CN(C)CC1CCCCC1	inactive	inactive	inactive
C[C@H]1CN([C@@H](C)CO)C(=O)Cc2cc(NS(C)(=O)=O)ccc2O[C@H]1CN(C)Cc1ccc2c(c1)OCO2	inactive	inactive	inactive
C[C@@H]1CN([C@H](C)CO)S(=O)(=O)c2ccc(C3=CCCCC3)cc2O[C@@H]1CN(C)Cc1cncnc1	inactive	inactive	inactive
CC(C)(C(=O)O)c1ccc([C@@H](O)CCCN2CCC(C(O)(c3ccccc3)c3ccccc3)CC2)cc1	inactive	inactive	inactive
CC(C)(C)CC(=O)N1C[C@@H]2c3nc(N4CCOCC4)ncc3CS(=O)(=O)[C@H]2C1	inactive	inactive	inactive
Cc1ccc(S(=O)(=O)N2C[C@@H](O)COC[C@@H]3O[C@H](CC(=O)N[C@@H]4CCN(Cc5ccccc5)C4)CC[C@H]32)cc1	inactive	inactive	inactive
COc1ccc(CN(C)C[C@@H]2OCCCC[C@H](C)Oc3ccc(NC(=O)Nc4ccc(C(F)(F)F)cc4)cc3C(=O)N([C@@H](C)CO)C[C@H]2C)cc1	active	active	inactive
Nc1nc(=O)[nH]cc1F	inactive	inactive	inactive
Cc1ccc(S(=O)(=O)Nc2ccc3c(c2)C(=O)N([C@H](C)CO)C[C@@H](C)[C@@H](CN(C)Cc2ccc(C(F)(F)F)cc2)O3)cc1	active	active	inactive
C=CCN1[C@H](Cc2ccccc2)[C@@H](c2cn(CCCCNC(=O)C(=O)NC)nn2)Oc2ccccc2S1(=O)=O	inactive	inactive	inactive
COc1ccc(C2=N[C@@H](c3ccc(Cl)cc3)[C@@H](c3ccc(Cl)cc3)N2C(=O)N2CCNC(=O)C2)c(OC(C)C)c1	inactive	active	active
CCCN(C)C[C@@H]1OCCCC[C@H](C)Oc2ccc(NC(=O)C3CCCCC3)cc2C(=O)N([C@H](C)CO)C[C@@H]1C	inactive	inactive	inactive
C[C@H]1CN([C@@H](C)CO)C(=O)Cc2cc(NC(=O)Cc3ccccc3)ccc2O[C@H]1CN(C)C(=O)Nc1cccc2ccccc12	inactive	inactive	inactive
Cc1ccc(S(=O)(=O)N(C)C[C@@H]2Oc3ccc(NS(=O)(=O)c4ccc(F)cc4)cc3C(=O)N([C@H](C)CO)C[C@H]2C)cc1	inactive	inactive	inactive
CCCCC1C(=O)N(c2ccccc2)N(c2ccc(O)cc2)C1=O (stereo not given)	inactive	active	inactive

Structure (SMILES)	cytotoxicity call (HSkMC)	cytotoxicity call (HepG2)	growth inhibition call (S. aureus RN4220)
Cc1cn([C@H]2CC[C@@H](CO)O2)c(=O)[nH]c1=O	inactive	inactive	inactive
C[C@H](CO)N1C[C@H](C)[C@@H](CN(C)C(=O)Nc2cccc3ccccc23)Oc2ccc(NC(=O)Cn3cnnn3)cc2CC1=O	inactive	inactive	inactive
C[C@@H]1CN([C@@H](C)CO)C(=O)c2cc(NC(=O)C3CC3)ccc2O[C@H]1CN(C)C(=O)Nc1ccc2c(c1)OCO2	inactive	inactive	inactive
C[C@H]1CN([C@@H](C)CO)C(=O)CCCn2cc(nn2)CO[C@@H]1CN(C)C(=O)Nc1ccnc(N2CCOCC2)c1	inactive	inactive	inactive
COC(=O)[C@H](Cc1ccc(N=[N+]=[N-])cc1)N1CC2=C[C@@H](C3CC3)n3c(=O)n(C)c(=O)n3[C@H]2[C@@H]1[C@@H](O)Cc1ccccc1	inactive	inactive	inactive
Clc1ccc(CSC(Cn2ccnc2)c2ccc(Cl)cc2Cl)cc1.O=[N+]([O-])O (stereo not given)	active	active	inactive
Cc1noc(C)c1S(=O)(=O)N(C)C[C@@H]1Oc2ccc(NS(=O)(=O)c3cccs3)cc2CC(=O)N([C@@H](C)CO)C[C@H]1C	inactive	inactive	inactive
COc1ccccc1CNC(=O)C[C@@H]1CC[C@@H]2[C@H](COC[C@@H](O)CN2C(=O)Nc2ccc(Cl)cc2)O1	inactive	inactive	active
CC(C)NC(=O)N(C)C[C@H]1Oc2ccc(NC(=O)Cn3cnnn3)cc2CC(=O)N([C@@H](C)CO)C[C@@H]1C	inactive	inactive	inactive
O=C1CN(S(=O)(=O)Cc2ccccc2)C[C@H]2[C@H](c3ccc(C#Cc4ccc(F)cc4)cc3)[C@@H](CO)N12	active	inactive	inactive
COc1ccc2c3c(ccc2c1)-c1[nH]c2ccccc2c1CC3	inactive	inactive	inactive
COc1cc(C(=O)NC2CCCNC2)cc(OC)c1OC (stereo not given)	inactive	inactive	inactive
COc1ccc(S(=O)(=O)N(C)C[C@H]2Oc3ccc(NC(=O)CCCN(C)C)cc3CC(=O)N([C@H](C)CO)C[C@H]2C)cc1	inactive	inactive	inactive
CN1C(=S)N[C@@H]2CS(=O)(=O)C[C@@H]21	inactive	inactive	inactive
Cc1noc(C)c1S(=O)(=O)N(C)C[C@@H]1Oc2ccc(NS(=O)(=O)c3ccccc3)cc2CC(=O)N([C@H](C)CO)C[C@H]1C	inactive	inactive	inactive
C[C@@H]1CN([C@@H](C)CO)C(=O)c2c(c3ccccc3n2C)-c2ccccc2CO[C@@H]1CN(C)C(=O)Nc1ccc(F)cc1	inactive	inactive	inactive
COc1ccc(S(=O)(=O)N(C)C[C@H]2OCCCC[C@H](C)Oc3ccc(NC(=O)c4ccccc4)cc3C(=O)N([C@H](C)CO)C[C@@H]2C)cc1	inactive	inactive	inactive
C[C@H](CO)N1C[C@H](C)[C@H](CN(C)S(=O)(=O)c2ccc(Cl)cc2)Oc2ccc(NS(=O)(=O)c3cn(C)cn3)cc2CC1=O	inactive	inactive	inactive
O=C(C[C@H]1C=C[C@H](NC(=O)c2cccc(F)c2)[C@@H](CO)O1)NCCN1CCCC1	inactive	inactive	inactive
O=S(=O)([O-])c1cc(I)c(O)c2ncccc12.[Na+]	inactive	active	inactive
O=C(C[C@@H]1C=C[C@@H](NS(=O)(=O)c2ccc(F)cc2)[C@H](CO)O1)NCCN1CCCCC1	inactive	inactive	inactive
CC(C)NC(=O)N(C)C[C@H]1Oc2ccc(NC(=O)NC3CCCCC3)cc2CC(=O)N([C@@H](C)CO)C[C@@H]1C	inactive	inactive	inactive
C[C@@H]1CN([C@H](C)CO)C(=O)c2cccc(NC(=O)NC3CCCCC3)c2O[C@@H]1CN(C)Cc1ccc(Cl)c(Cl)c1	inactive	inactive	inactive
CCCC#Cc1ccc2c(c1)O[C@H](CN(C)Cc1ccc3c(c1)OCO3)[C@@H](C)CN([C@@H](C)CO)S2(=O)=O	inactive	inactive	inactive
C[C@@H]1CN([C@@H](C)CO)C(=O)c2cccc(NS(=O)(=O)c3cn(C)cn3)c2O[C@@H]1CN(C)Cc1ccncc1	inactive	inactive	inactive
C[C@@H]1CN([C@@H](C)CO[Si](C)(C)C(C)(C)C)C(=O)c2cc(NC(=O)Nc3ccccc3)ccc2O[C@@H](C)CCCCO[C@H]1CN(C)S(=O)(=O)c1ccc(F)cc1	inactive	active	inactive
COc1ccc([Si](C)(C)[C@H]2[C@H](CC(=O)N3CCC[C@H]3CO)O[C@@]3(C(=O)N(Cc4cccc(N5C(=O)COc6ccccc65)c4)c4ccccc43)[C@@H]2C)cc1	inactive	inactive	inactive
